{"source": "paper doi:10.1101/2025.05.13.653810", "about": "“Spatial control of secretory vesicle targeting by the Ync13–Rga7–Rng10 complex during cytokinesis” (bioRxiv, 2025)", "binders": {"B1": {"name": "Ync13-tdTomato (protein, UniProt O13683 1-1237)", "chain": "MNCRRKPLPLHSNEVQAAESISKDELYSWTLKNVLILFLVQYRASTPSALQTSSFSTPVEKKTNGAFSGSLFSAKEKKDNPKYPKDFIKYLSLALESISMGKEPEYQDQLIRGCFAAFYNNINKSHISKQLKDSRKIEDMFLIFASSVSSELTKRLGTAYDSNLADRITASFIELCKRVTLKGQLASPSSEFVSHLDMYHSKLLNKSEILSTKRVNRGQDQFDLSSFPLLKVFSSVFKVAYSKALLDAEKLFPSIDEAAIAEDIGILIEDLESDACKFSHSVVDFSNYKSYSTWKARELQTLEQHRKIMLSLIPLSSSPNHPIQPIGFPASRKTPTYVPPIARPYFRQLLSLCLEYRLQVTDPVEVKQINTFIRECSIYWRILPSTRCALSMDFAREHLQKGLITSADVLTHFGELHKSLKEWEITYWPKIDVSIFSSALFGIRNALAQLLKKSLLDLLHEKKADFHRWLNIMSICVEDGKVINQDLSPKSEISSVALALQEHCKVIFDEEFDLSKLPSSNFLDEIILASNRISVRIKFLERNCSECIYGVLSLPQIFINIVLPNYIRAALVVAKEYLREKANADINDLTKDMLEIYSDLKQMIHVLQEYHNEEYRIGSFEGFFQPFIDSWLDNVEASAEQWFLRSLEKDNFDENSSEGQYSSSIVDLFHAFHQAFRTLEGFEWEDDLANARFFTRFFRVIYIVLSKYTQWTTQKFFEEANKQDDTSEVQNDNSSSWFSKARNILSGSNEVLPFRFSPTMCILLNNIHFAMHAYEELEQKIDLQRLIEALDVAESTKRHKISATNYLYTIKVVRGEGLHPDGAGKIRTSYIVLTDNKGRRIGKTRPIHSMNPRWDDTFEVKTKDALMITANLWSKGKFNDHEIFGRSSFTLSPKIYGDYLPREEWFDLNPHGELLLRIEMEGEREHIGFYVGRTYHDLERAQREMIKFIVNKMEPVINQNLSTATLKKLLSANTWMDLDKTMTSVTSLLNRTGFSSKSSENVKKEGELTDVQIEAAIYELLDYFDLNFSIIAKHLTKDVFVTVMSYVWDEVVCTTEELLLPPVSVKPINRKPLSPAQMAIVYRWLQFLKDYFYANGEGVKLPVLETDHYKELLRVQEYYDKPTDFLLQECDKIASQLYLSSRMVNNEPVESLPRHSRIKFANKEIYRSGTIRKVHIQTNESELERNERIILRILRMRADSKRFLSKHFQRKGRLLMADAMRNGYVMPLGHLKKLDSR"}}, "assay_in_all_cases": "ectopic mistargeting to mitochondria (Tom20-GBP); mEGFP-, GFP- or mECitrine-tagged protein 1 mistargeted to mitochondria by Tom20 tagged with GFP-binding protein (GBP) nanobody in live S. pombe cells; recruitment of tdTomato-, mCherry- or RFP-tagged protein 2 to mitochondria seen by confocal microscopy", "key": {"[1]": {"target": "T1, Rng10-(1–200)-mEGFP (S. pombe) (UniProt Q9P6L9)", "T1 sequence": "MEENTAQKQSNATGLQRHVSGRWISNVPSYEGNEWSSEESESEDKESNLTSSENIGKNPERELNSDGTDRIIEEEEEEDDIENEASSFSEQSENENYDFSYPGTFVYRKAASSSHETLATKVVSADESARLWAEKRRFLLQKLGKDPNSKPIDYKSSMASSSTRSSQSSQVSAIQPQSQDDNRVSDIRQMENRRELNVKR"}, "[2]": {"target": "T2, mECitrine-Rng10-(201–1038) (S. pombe) (UniProt Q9P6L9)", "T2 sequence": "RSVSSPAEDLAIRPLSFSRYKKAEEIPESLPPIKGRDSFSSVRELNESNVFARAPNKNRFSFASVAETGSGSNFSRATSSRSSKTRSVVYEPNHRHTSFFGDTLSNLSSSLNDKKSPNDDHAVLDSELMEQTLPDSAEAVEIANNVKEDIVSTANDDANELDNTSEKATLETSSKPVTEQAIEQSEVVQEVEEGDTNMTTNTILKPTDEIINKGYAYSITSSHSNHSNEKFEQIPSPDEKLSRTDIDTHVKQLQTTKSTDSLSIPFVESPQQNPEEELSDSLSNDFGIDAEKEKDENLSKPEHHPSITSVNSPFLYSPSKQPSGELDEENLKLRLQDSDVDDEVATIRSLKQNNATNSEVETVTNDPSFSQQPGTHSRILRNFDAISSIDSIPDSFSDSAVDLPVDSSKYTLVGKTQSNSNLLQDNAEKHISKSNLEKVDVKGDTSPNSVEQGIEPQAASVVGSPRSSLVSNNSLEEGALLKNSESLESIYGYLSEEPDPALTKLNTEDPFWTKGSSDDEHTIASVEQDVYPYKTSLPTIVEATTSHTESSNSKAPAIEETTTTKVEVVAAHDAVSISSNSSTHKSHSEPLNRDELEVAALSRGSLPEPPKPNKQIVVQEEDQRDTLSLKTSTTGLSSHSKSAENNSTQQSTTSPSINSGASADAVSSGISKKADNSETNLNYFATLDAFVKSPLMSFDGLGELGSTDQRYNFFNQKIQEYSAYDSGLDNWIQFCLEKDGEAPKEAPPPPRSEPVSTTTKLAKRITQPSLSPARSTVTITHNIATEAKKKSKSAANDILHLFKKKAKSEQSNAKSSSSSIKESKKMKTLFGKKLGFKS"}, "[3]": {"target": "T3, Rng10-mEGFP (S. pombe) (UniProt Q9P6L9)", "T3 sequence": "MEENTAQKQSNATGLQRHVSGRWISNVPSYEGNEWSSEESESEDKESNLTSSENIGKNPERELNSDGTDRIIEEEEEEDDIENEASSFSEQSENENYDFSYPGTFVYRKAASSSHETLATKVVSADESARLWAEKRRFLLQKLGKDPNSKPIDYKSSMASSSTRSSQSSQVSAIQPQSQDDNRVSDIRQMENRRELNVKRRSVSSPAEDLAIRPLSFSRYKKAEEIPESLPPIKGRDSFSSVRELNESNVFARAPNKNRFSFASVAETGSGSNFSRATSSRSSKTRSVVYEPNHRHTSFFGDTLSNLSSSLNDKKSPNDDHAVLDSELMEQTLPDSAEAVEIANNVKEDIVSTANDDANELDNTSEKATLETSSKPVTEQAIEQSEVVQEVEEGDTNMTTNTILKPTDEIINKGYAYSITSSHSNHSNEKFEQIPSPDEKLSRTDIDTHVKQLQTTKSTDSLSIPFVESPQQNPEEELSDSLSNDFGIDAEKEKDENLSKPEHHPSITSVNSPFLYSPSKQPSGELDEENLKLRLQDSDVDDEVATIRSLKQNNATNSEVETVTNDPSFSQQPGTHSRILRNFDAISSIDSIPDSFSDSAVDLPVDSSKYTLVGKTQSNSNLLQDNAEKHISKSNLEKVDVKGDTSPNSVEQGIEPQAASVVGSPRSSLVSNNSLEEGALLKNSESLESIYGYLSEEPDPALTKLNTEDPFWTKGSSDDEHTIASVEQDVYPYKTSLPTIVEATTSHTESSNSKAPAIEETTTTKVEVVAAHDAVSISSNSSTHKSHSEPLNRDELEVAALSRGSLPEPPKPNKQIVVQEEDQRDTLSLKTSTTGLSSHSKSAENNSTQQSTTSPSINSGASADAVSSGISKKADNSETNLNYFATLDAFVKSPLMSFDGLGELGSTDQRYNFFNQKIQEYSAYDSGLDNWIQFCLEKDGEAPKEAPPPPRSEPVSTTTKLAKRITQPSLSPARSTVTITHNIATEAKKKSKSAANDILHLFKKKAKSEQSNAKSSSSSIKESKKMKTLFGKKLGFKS"}}, "note": "Results are given in words; binding and its absence hold for the method and conditions named. Some binding calls cover weakened binding; strength is not graded here. For part of these data: Tags and fused reporters may be left off the sequences shown.", "data": [{"binder": "B1", "values": [{"measurement": "binding", "setting": "[1]", "result": "no binding"}, {"measurement": "binding", "setting": "[2]", "result": "binds"}, {"measurement": "binding", "setting": "[3]", "result": "binds"}]}]}
